The list shows a part of the results. At the low end of the ranking the order means little.

The test concerns the target T1, GST-Rok-C97-191 (UniProt O34857).
T1 sequence: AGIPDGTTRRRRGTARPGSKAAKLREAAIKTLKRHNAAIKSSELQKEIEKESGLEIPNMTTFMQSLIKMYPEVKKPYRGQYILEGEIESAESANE
Description: protein binding microarray.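 Note: rank score from −0.5 (least bound) to 0.5 (best bound).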 Particulars: Rok is a gene silencer of Bacillus subtilis; high values mean tight binding; most listed sequences are background and not binding sites; double strand, one strand shown.
Take AACTCTAA: the binding signal was found to be 0.104 E-score.
CGTTACAC had a binding signal of 0.00626 E-score.
Next, AGAGCATC: -0.149 E-score; ACAACGCC: -0.0741 E-score; AAAGGCGG: -0.354 E-score.
As for CCCCTCAC, the figure is -0.217 E-score; as for ATTTCTTC, 0.204 E-score.
In turn, GAGAAACC gave a binding signal of 0.0183 E-score.
Next, GCCTCCAC: -0.204 E-score; AGCTGTCC: -0.127 E-score.
Next, ACGGAGAA: 0.0456 E-score; CATGGAGC: -0.184 E-score; CAGACAGG: -0.364 E-score.
As for GCAGTATA, the figure is 0.224 E-score; as for AGCCATGG, -0.182 E-score.
The sequence CTCACCCC yielded a binding signal of -0.227 E-score.
As for ACCCAGAC, the figure is -0.116 E-score.
Next, TCGAAAGA: -0.0344 E-score; CCTCTGGA: -0.0747 E-score.
Next, CTGAGCCA: -0.122 E-score; AAAAGCGA: 0.0458 E-score; AAATGCTA: 0.16 E-score.
The sequence ATTACTGC returned a binding signal of 0.11 E-score.
For the sequence AAACATGT, the binding signal was -0.0426 E-score.
GTGCCGCA: the binding signal is -0.207 E-score.
Next, AGCAAGCA: -0.0851 E-score; CAGAACGA: -0.287 E-score.
Next, ACGAGTCT: -0.122 E-score; AGCTACAC: 0.169 E-score; ACCAATAT: 0.171 E-score.
On to ATTATGCA, for which the binding signal turned out to be 0.152 E-score.
Next, CCTACTAC: 0.343 E-score; ACTCAACA: 0.0186 E-score; GAACCTAC: 0.198 E-score.
Next, AGGACTGG: -0.103 E-score.
As for AGCAGGCA, the figure is -0.115 E-score.
For the sequence AAGCTTCC, the binding signal was -0.107 E-score.
Next, ACCGGGTG: -0.157 E-score; AGAGTCTA: -0.014 E-score; CGGAGTTC: -0.107 E-score.
As for CATCGGGC, the figure is -0.213 E-score.
As for ACCTTGAC, the figure is -0.189 E-score; as for CACAGTGA, -0.00873 E-score; as for TCTGAAAA, 0.0191 E-score.
In turn, GCAAGATA showed a binding signal of -0.00813 E-score.
For the sequence GCCGGCGC, the binding signal was -0.364 E-score.
As for TATTCGGA, the figure is -0.0696 E-score; as for GCCTGGTA, -0.149 E-score; as for CAGCTGAC, -0.176 E-score.
The sequence AGAACGCG showed a binding signal of -0.0267 E-score.
ATGGCGGA came in with a binding signal of -0.251 E-score.
As for AATGGTGT, the figure is -0.103 E-score; as for AAACGTCC, -0.268 E-score; as for GGGCCCCC, -0.359 E-score.
Next, CTCGGTCA: -0.0067 E-score; TACCCGCA: -0.0663 E-score; ACCGTTAC: 0.033 E-score.
Next, AGGGCGCA: -0.196 E-score.
As for ACTTGGTG, the binding signal was -0.174 E-score.
In turn, AGATCTAC gave a binding signal of 0.315 E-score.
In turn, AGCACAAT yielded a binding signal of 0.156 E-score.
As for ACAGAGGG, the figure is -0.104 E-score.
As to ATGAGTCA, the binding signal turned out to be 0.00203 E-score.
Regarding ACGGTCCT, the binding signal is -0.132 E-score.
As for ATCCCACA, the figure is -0.0109 E-score.
As for CACGGTAG, the figure is 0.244 E-score; as for AGCGACCG, -0.293 E-score; as for GATGGCCA, 0.0347 E-score.
Next, AGGGACTG: -0.198 E-score; CAGACCCG: -0.212 E-score.
Turning to TCGGACGA, the binding signal is -0.145 E-score.
Next, GCTGCGGA: -0.137 E-score; AGGACGCG: -0.208 E-score.
As for AGTTTGAT, the figure is 0.106 E-score; as for TACTTACA, 0.31 E-score; as for GAACCCCC, -0.385 E-score.
Next, GTCGCCCA: -0.154 E-score; ACTCGGCG: -0.0249 E-score.
In turn, TCGGTAAA had a binding signal of 0.173 E-score.
In turn, CCACGGTA displayed a binding signal of 0.119 E-score.
In turn, CAACCTAC showed a binding signal of 0.263 E-score.
Next, ATAGGTTG: 0.0517 E-score.
As for CAGTGTCC, the figure is -0.11 E-score; as for AGGTAGTA, 0.328 E-score.
Next, AGTCTTCA: 0.027 E-score.
CACGGGCC displayed a binding signal of -0.12 E-score.
As for CCGGGTAC, the figure is -0.0882 E-score; as for CAGCGTCG, -0.222 E-score.
Next, TAGTGGGA: 0.119 E-score.
As for CTGGAGAA, the figure is -0.0846 E-score; as for GCTATTTA, 0.153 E-score.
The sequence TCCAGGAA yielded a binding signal of -0.1 E-score.
Turning to ACTAGGGC, the binding signal was -0.143 E-score.
As for GACGGGCC, the figure is -0.213 E-score; as for CTGACGCA, -0.195 E-score; as for GTACAGAC, -0.0134 E-score.
As for GTGAGACA, the figure is -0.0895 E-score; as for GGCTTAGA, -0.132 E-score; as for CATATCAA, 0.0654 E-score.
As for CGGGAAAA, the figure is -0.11 E-score; as for CATCCAAA, -0.0954 E-score; as for AGGCCTTG, -0.272 E-score.
In turn, ATTAACTC yielded a binding signal of 0.124 E-score.
As for GTACTACA, the figure is 0.296 E-score; as for CCGACCGC, -0.188 E-score.
Sequence ATTTGAAA registered a binding signal of 0.0658 E-score.
Next, GGAATCGA: 0.209 E-score.
Next, ATCGCTAG: 0.0794 E-score; AACAGTAG: 0.362 E-score; AATCACTA: 0.00836 E-score.
As for ATCTCACC, the figure is -0.0238 E-score; as for CCAAGCGC, -0.127 E-score.
In turn, CTTTTTCC registered a binding signal of -0.109 E-score.
Next, GAATCCAA: -0.125 E-score; CTACCCCA: 0.211 E-score; CCCAGGCG: -0.297 E-score.
As for AAACATTA, the figure is 0.152 E-score; as for AGCCAAGC, 0.0344 E-score.
The sequence GCGACTTA had a binding signal of -0.0121 E-score.
CAAGCGCG displayed a binding signal of -0.21 E-score.
TTAGTGAA registered a binding signal of 0.221 E-score.
As for CGGTACTC, the figure is 0.0561 E-score; as for CAGCCCGA, -0.252 E-score.
Consider ATAGGGAT, for which the binding signal turned out to be 0.158 E-score.
Next, AGACGTGC: -0.045 E-score.
Next, CTGTGGGA: -0.0971 E-score; TGATGGCA: -0.158 E-score.
As for CTGCCAGA, the figure is -0.124 E-score; as for ACGACAAC, 0.0475 E-score.
On to GCTCTTTA, for which the binding signal was -0.0791 E-score.
Next, ACGGGATC: -0.0509 E-score.
As for GCCCTACA, the figure is -0.125 E-score.
Next, ATTTCACG: 0.1 E-score.
As to CACATGGG, the binding signal was -0.0676 E-score.
As for AGGTCTTG, the figure is -0.0853 E-score; as for CGTGGTCC, -0.232 E-score.
As for GATACGCA, the figure is 0.0668 E-score.
Next, AATTTCAC: 0.195 E-score; ACGCAGCC: -0.29 E-score; GCTTGTAC: -0.118 E-score.
On to AACGAGGC, for which the binding signal is -0.123 E-score.
Take ATCGGCTG: the binding signal was 0.0324 E-score.
Next, CAGTAGCG: 0.213 E-score; GAGGCATC: -0.112 E-score.
As for ATCGTGGA, the binding signal is -0.0661 E-score.
As for GGATACCA, the figure is -0.00728 E-score; as for AAGCAGCC, -0.116 E-score; as for AAACTCGT, 0.0896 E-score.
Next, ATGCGAGG: -0.0618 E-score.
Next, AATCACAG: -0.0588 E-score; GGATGGAA: -0.0273 E-score; TTGCGAAA: -0.0399 E-score.
Sequence AAAGTTCA gave a binding signal of 0.138 E-score.
Consider ACCTAATA, for which the binding signal worked out at 0.195 E-score.
Next, AAGTTACC: 0.239 E-score.
As for CCAGTCGA, the figure is -0.212 E-score; as for AAAAAAAC, 0.18 E-score; as for ATAGCCTC, -0.247 E-score.
For CATCATAG, the binding signal is 0.00873 E-score.
As for ACGCTAGG, the figure is -0.0315 E-score; as for CAGTACAG, 0.0142 E-score.
As for TCTGCTCA, the figure is -0.0793 E-score; as for GGATAACA, 0.104 E-score.
As for ACCCTCGC, the figure is -0.152 E-score; as for ATTGGCTC, -0.119 E-score.
CGTCTTGA displayed a binding signal of -0.187 E-score.
Next, ATACAAAA: 0.276 E-score; ACTCTACG: 0.0656 E-score.
GCGAGGCA displayed a binding signal of -0.22 E-score.
CTTCAAAA gave a binding signal of -0.0258 E-score.
As for ATTTTTCG, the figure is 0.181 E-score; as for CACCACGG, -0.0502 E-score.
As for AATATCTC, the figure is 0.28 E-score; as for ACCATTTA, 0.243 E-score.
As for GATTTTAA, the figure is 0.145 E-score; as for CGTCTCAC, -0.218 E-score.
As to AAATCACA, the binding signal amounted to 0.0755 E-score.
As for AAGTGGAT, the figure is -0.0622 E-score; as for TAAAAATA, 0.351 E-score; as for GGAAACAA, 0.0324 E-score.
Next, AACCGAGA: -0.0407 E-score; AATCCCAA: 0.0892 E-score.
Sequence AACTGCCG returned a binding signal of 0.0492 E-score.
Next, CGAAATCA: 0.0596 E-score; CCCAACAA: -0.0671 E-score.
As for CGTAGAAA, the figure is 0.338 E-score.
As for AATAGTTG, the figure is 0.283 E-score; as for CTTTTGCA, -0.053 E-score.
GAGTTAGA: the binding signal was 0.246 E-score.
Next, AGGCACTG: -0.0549 E-score.
As for ACATTTAA, the figure is 0.127 E-score.
As for GTTCTGAA, the figure is -0.0197 E-score.
Turning to CACGATGG, the binding signal was -0.148 E-score.
As for AGCTGACA, the figure is -0.204 E-score; as for CAGAATAA, 0.0544 E-score.
CGGGCACC yielded a binding signal of -0.305 E-score.
As for CCGGGTTA, the figure is -0.0338 E-score.
Next, CACGTATG: -0.166 E-score.
As for CTTATTTA, the binding signal was determined as 0.184 E-score.
As for CCGCTGCA, the figure is -0.252 E-score; as for TCACAGGA, -0.000848 E-score.
Next, GTCTGAAC: -0.11 E-score.
ATAGGCTA returned a binding signal of 0.138 E-score.
Turning to CGTCGGAG, the binding signal is -0.178 E-score.
As for AGTGCCAC, the binding signal is -0.221 E-score.
Next, CCCGCAAC: -0.266 E-score; ACAGAATC: 0.0493 E-score.
Next, AAGAACTG: -0.0469 E-score.
As for ACGTCATG, the figure is -0.125 E-score.
AATCGACT: the binding signal is -0.0305 E-score.
As for GGATCGAA, the figure is -0.0989 E-score; as for TAAGCAAA, 0.201 E-score; as for AGGACTTA, -0.0949 E-score.
As for AGATGCCA, the figure is -0.00455 E-score.
Next, AGTTAATA: 0.315 E-score; CTCGCTGC: -0.118 E-score.
With TAACCGAA, the binding signal was determined as 0.0668 E-score.
As for TCAGCAGA, the figure is -0.179 E-score; as for CCATAGAG, -0.22 E-score.

Source of the values: publication PMC6212790.
